From PMC4336329 (PLoS ONE, 2015)
About 2,200 (0.71%) of roughly 310,000 compounds showed an effect of 50% or more. The effect is printed as a negative number. This is one part of the list.

Each molecule was assayed against human ether-à-go-go-related gene (hERG) potassium channel (human, UniProt Q12809) (assay: primary screen, population patch clamp on CHO cells stably expressing hERG).
human ether-à-go-go-related gene (hERG) potassium channel, sequence (Q12809 whole entry, looked up): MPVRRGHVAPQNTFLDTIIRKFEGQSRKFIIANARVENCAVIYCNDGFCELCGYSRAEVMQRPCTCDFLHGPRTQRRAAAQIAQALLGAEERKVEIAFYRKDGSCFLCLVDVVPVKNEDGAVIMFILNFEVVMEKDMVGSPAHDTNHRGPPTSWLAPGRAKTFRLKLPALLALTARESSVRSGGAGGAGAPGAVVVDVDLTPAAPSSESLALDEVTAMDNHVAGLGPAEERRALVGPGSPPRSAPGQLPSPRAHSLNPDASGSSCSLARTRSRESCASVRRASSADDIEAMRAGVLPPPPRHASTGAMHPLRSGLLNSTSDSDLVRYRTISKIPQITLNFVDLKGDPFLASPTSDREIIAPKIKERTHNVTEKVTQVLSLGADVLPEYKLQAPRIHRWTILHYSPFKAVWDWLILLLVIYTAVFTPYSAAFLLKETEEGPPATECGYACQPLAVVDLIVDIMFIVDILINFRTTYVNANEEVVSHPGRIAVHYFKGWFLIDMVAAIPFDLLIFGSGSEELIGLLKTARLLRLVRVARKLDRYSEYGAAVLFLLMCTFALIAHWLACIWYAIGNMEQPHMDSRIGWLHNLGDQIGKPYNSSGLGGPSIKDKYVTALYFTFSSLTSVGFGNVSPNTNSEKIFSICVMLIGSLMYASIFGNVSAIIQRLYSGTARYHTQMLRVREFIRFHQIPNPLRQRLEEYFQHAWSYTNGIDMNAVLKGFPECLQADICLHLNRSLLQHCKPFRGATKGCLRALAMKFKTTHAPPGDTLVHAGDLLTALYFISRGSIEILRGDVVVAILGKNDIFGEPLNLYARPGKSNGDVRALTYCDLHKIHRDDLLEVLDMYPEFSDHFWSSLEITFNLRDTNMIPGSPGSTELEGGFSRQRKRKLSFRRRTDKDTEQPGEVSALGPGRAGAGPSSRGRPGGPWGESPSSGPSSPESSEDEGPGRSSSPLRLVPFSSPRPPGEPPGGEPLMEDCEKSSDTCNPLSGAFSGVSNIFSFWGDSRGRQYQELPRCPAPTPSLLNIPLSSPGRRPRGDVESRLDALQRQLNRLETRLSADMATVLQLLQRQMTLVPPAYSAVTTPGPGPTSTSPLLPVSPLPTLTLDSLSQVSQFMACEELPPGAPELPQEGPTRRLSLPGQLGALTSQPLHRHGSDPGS
With `C=CCNc1ncnc2c1[nH]c1ccccc12` the “hERG current change (%, negative = inhibition) at 1uM” value was 2.98%. With `Cc1nc(-c2ccc(F)cc2)c(CC(=O)N2CCN(S(=O)(=O)c3cccc(F)c3)CC2)s1` the “hERG current change (%, negative = inhibition) at 1uM” value was 10.5%. `CN(C)CCCNc1ncnc2c1cnn2-c1ccccc1` was tested, and the “hERG current change (%, negative = inhibition) at 1uM” value was 6.33%. `Cc1ccc(NC(=O)c2cc(NC(=O)c3ccco3)ccc2N2CCOCC2)cc1Cl` was tested, and the “hERG current change (%, negative = inhibition) at 1uM” value was -3.21%. For `O=C1CCN(C(=O)Cc2ccccc2[N+](=O)[O-])CC1`, the “hERG current change (%, negative = inhibition) at 1uM” value was 14.3%. For `CN(C)CCCC1Sc2ccccc2Sc2ccccc21.O=C(O)C(=O)O` (centres unmarked), the “hERG current change (%, negative = inhibition) at 1uM” value was 4.39%. `COc1ccc(NC(=O)COc2ccc(C)nc2[N+](=O)[O-])cc1S(N)(=O)=O` was tested, and the “hERG current change (%, negative = inhibition) at 1uM” value was 6.34%. In the case of `CCOc1ccccc1NC(=O)c1ccc(OCC)c([N+](=O)[O-])c1`, the “hERG current change (%, negative = inhibition) at 1uM” value was 1.13%. In the case of `CNC(=O)Oc1cccc(-c2cn3cc(OC(=O)NC)ccc3n2)c1`, the “hERG current change (%, negative = inhibition) at 1uM” value was -0.168%. With `CC(=O)c1ccc(NC(=O)CN2C(=O)COc3ccc(S(=O)(=O)N4CCCC4)cc32)cc1` the “hERG current change (%, negative = inhibition) at 1uM” value was 5.6%. `CC(C)COC(=O)C1C2C=CC3(CN(C4CCCC4)C(=O)C13)O2` (centres unmarked) was tested, and the “hERG current change (%, negative = inhibition) at 1uM” value was -2.15%. For `COC(=O)c1ccc(N=NNc2cccc(Br)c2)cc1`, the “hERG current change (%, negative = inhibition) at 1uM” value was 8.24%. For `O=C(NC(=S)Nc1nc(-c2ccc([N+](=O)[O-])cc2)cs1)c1ccco1`, the “hERG current change (%, negative = inhibition) at 1uM” value was 13.5%. `COC(=O)c1cc(S(=O)(=O)N(C)C2CCCCC2)c[nH]1` was tested, and the “hERG current change (%, negative = inhibition) at 1uM” value was 14%. In the case of `CN(C)S(=O)(=O)c1ccc(Cl)c(C(=O)Nc2ccc(S(=O)(=O)N3CCOCC3)cc2)c1`, the “hERG current change (%, negative = inhibition) at 1uM” value was 7.8%. With `CCN(CC(=O)Nc1c(F)cccc1F)C(=O)c1cc2ccccc2oc1=O` the “hERG current change (%, negative = inhibition) at 1uM” value was -1.25%. `C=CCN1CN(S(=O)(=O)c2ccc(OC)cc2)c2nc3ccccc3nc21` was tested, and the “hERG current change (%, negative = inhibition) at 1uM” value was 16.1%. In the case of `Cc1ccc(-n2cccc2/C=C2/NC(=O)N(CC(=O)Nc3cccc(C)c3)C2=O)cc1`, the “hERG current change (%, negative = inhibition) at 1uM” value was 1.56%. With `Cc1c(Cl)cccc1NC(=O)c1ccccc1-c1ccccc1C(=O)O` the “hERG current change (%, negative = inhibition) at 1uM” value was 9.88%. `O=C(CCl)NC1CCCc2ccccc21` (centres unmarked) was tested, and the “hERG current change (%, negative = inhibition) at 1uM” value was 9.5%. For `CCCNC(=O)c1ccc(CN2CCOCC2)cc1`, the “hERG current change (%, negative = inhibition) at 1uM” value was 7.91%. With `O=C(O)C(=O)O.c1ccc(-c2ccccc2OCCCN2CCCCC2)cc1` the “hERG current change (%, negative = inhibition) at 1uM” value was -69.1%. In the case of `O=C(N/N=C/c1cn(-c2ccccc2)nc1-c1cccs1)c1ccccc1F`, the “hERG current change (%, negative = inhibition) at 1uM” value was 12.2%. For `CCN(CC(=O)NC(C)(C)C)Cc1cc(=O)n2c(-c3ccccc3)csc2n1`, the “hERG current change (%, negative = inhibition) at 1uM” value was 18.3%. For `S=C(Nc1ccc(Cl)cc1Cl)N1CCOCC1`, the “hERG current change (%, negative = inhibition) at 1uM” value was 8.45%. `O=C(c1ccc(F)cc1)C1CCN(C(=O)Nc2ccc(F)cc2F)CC1` was tested, and the “hERG current change (%, negative = inhibition) at 1uM” value was 12.9%. With `O=S(=O)(Nc1ccon1)c1ccc(F)c(F)c1` the “hERG current change (%, negative = inhibition) at 1uM” value was 16.9%. `Cc1onc(-c2c(Cl)cccc2Cl)c1C(=O)ONC(=O)c1ccccc1` was tested, and the “hERG current change (%, negative = inhibition) at 1uM” value was 14.3%. In the case of `CSc1n[nH]c(NC(C)=O)n1`, the “hERG current change (%, negative = inhibition) at 1uM” value was 8.29%. In the case of `CC1CCCCC12NC(=O)N(CC(=O)NCc1ccco1)C2=O` (centres unmarked), the “hERG current change (%, negative = inhibition) at 1uM” value was 0.165%. In the case of `CCN(CC)C(=S)Nc1c(C)n(C)n(-c2ccccc2)c1=O`, the “hERG current change (%, negative = inhibition) at 1uM” value was 10.6%. `COc1cc(-c2nnc(COC(=O)c3nn(CC(C)C)c(=O)c4ccccc34)o2)cc(OC)c1OC` was tested, and the “hERG current change (%, negative = inhibition) at 1uM” value was -5.77%. In the case of `COc1ccc(CCNC(=O)CCC(=O)Nc2ccccc2[N+](=O)[O-])cc1OC`, the “hERG current change (%, negative = inhibition) at 1uM” value was 11.5%. For `NC1=NS(=O)(=O)NC1c1cccc(Cl)c1` (centres unmarked), the “hERG current change (%, negative = inhibition) at 1uM” value was 8.78%. For `CCCCNC(=O)O[C@H]1C[C@@H]2CCN3C(=O)CCC[C@H]([C@H]1Cc1ccccc1)[C@H]23`, the “hERG current change (%, negative = inhibition) at 1uM” value was 12.6%. `CC1CCCC(NC(=O)CN2CCN(S(=O)(=O)c3cccs3)CC2)C1C` (centres unmarked) was tested, and the “hERG current change (%, negative = inhibition) at 1uM” value was 3.86%. With `Cc1sc(NC(=O)Cn2cnnn2)nc1-c1ccc(Cl)cc1` the “hERG current change (%, negative = inhibition) at 1uM” value was 2.58%. In the case of `Cc1ccc(NC(=O)C2C3CCC(O3)C2C(=O)O)c(Br)c1` (centres unmarked), the “hERG current change (%, negative = inhibition) at 1uM” value was 21%. With `CCCOC(=O)c1ccc(OC(=O)c2ccco2)cc1` the “hERG current change (%, negative = inhibition) at 1uM” value was 10.7%. `COc1ccc(NC(=S)N/N=C2\CC(C)(C)Oc3ccc(OC)cc32)cc1` was tested, and the “hERG current change (%, negative = inhibition) at 1uM” value was 9.81%. `FC(F)(F)c1cnc(COc2ccc(Cl)cc2Cl)c(Cl)c1` was tested, and the “hERG current change (%, negative = inhibition) at 1uM” value was 10.3%. `O=C(COc1ccc2ccccc2c1)Nc1cccnc1Cl` was tested, and the “hERG current change (%, negative = inhibition) at 1uM” value was -3.52%. With `Cc1ccc(N(C(=O)c2ccco2)C(C(=O)NC2CCCC2)c2ccco2)c(C)c1` (centres unmarked) the “hERG current change (%, negative = inhibition) at 1uM” value was 11.2%. For `CCOC(=O)c1c(-c2ccc(C)o2)csc1NC(=O)CN(C)CC(=O)Nc1ccc(C)cc1`, the “hERG current change (%, negative = inhibition) at 1uM” value was 11.4%.
